Hit rate of the full screen: of about 150,000 compounds, about 540 (0.36%) showed an effect of 50% or more. Some of the results follow.

For the assay, the system named is Plasmodium falciparum. The assay is described as follows: Primary screen in NF54 nanoGlo assay, in single point, at 2uM, 72h; a lower Z score goes with more inhibition. The format is functional, Erythrocyte. Conditions: timepoint 72 hour.
For orientation: % Inhibition means the change of the read-out against control, counted positive when it falls. Consider `Fc1ccc2ncnc(N[C@H]3CCCN(CCN4CCOCC4)C3)c2c1`, for which the “% Inhibition” value was -6% and the Z score is on record as 1.32.
For `COC1CN(c2ncc(Br)cn2)CC1O` (centres undefined) the same measures were -7% and 1.34.
For the compound `CCOc1cc(NC2CCN(c3ccnc4c3cnn4C)CC2)ncn1`, the “% Inhibition” value is -10% and the Z score is on record as 2.26.
For the compound `OCCNc1nc2ccccc2n1Cc1cc(-c2ccc(Cl)cc2)no1`, the “% Inhibition” value was -10% and the Z score is recorded as 1.7.
For `O=S(=O)(c1ccc2[nH]cnc2c1)N1CCC2(CCNCC2)C1` the same measures were -9% and 1.32.
As for `CCN1CC(NS(=O)(=O)c2ccc3[nH]cnc3c2)C(OC)C1` (centres undefined), the “% Inhibition” value is recorded as -11% and the Z score was 2.12.
For the compound `Cc1cnc(N)nc1N1CCN([C@H]2CCNC2)CC1`, the “% Inhibition” value was 2% and the Z score is given as -0.4.
On to `Cn1nnc(-c2cccc(NC(=O)c3cc4c(Cl)cccc4[nH]3)c2)n1`, for which the “% Inhibition” value worked out at 3% and the Z score is on record as -0.43.
Turning to `Cn1cc(CNc2ccc(OCC(F)(F)F)nc2)c(-c2ccc3c(c2)OCCCO3)n1`, the “% Inhibition” value is reported as -3% and the Z score came out at 0.53.
Consider `CN(C(=O)c1cc(F)cc2cccnc12)c1cccc2ncccc12`, for which the “% Inhibition” value was -1% and the Z score came to 0.14.
For the compound `N#Cc1cccnc1NCc1cccc(C(=O)Nc2ccc(Oc3cccc(F)c3)nc2)c1`, the “% Inhibition” value amounted to 5% and the Z score is given as -0.97.
`N#Cc1ccc(N2CCC(Nc3ncnc4nc(N)ccc34)CC2)cc1`: the “% Inhibition” value is listed as 8% and the Z score was -1.45.
For `O[C@H]1CCN(Cc2cccc(NCc3cn4ccnc4s3)c2)C1`, the “% Inhibition” value is recorded as 52% and the Z score is -7.83.
As for `CN(Cc1n[nH]c2c1CCCC2)C1CCN(c2ccc(C(=O)NCCN3CCOCC3)cc2)CC1`, the “% Inhibition” value is given as -12% and the Z score was 2.13.
With `O=C(NC1CCN(C2CCCCC2)CC1)c1ccc(-c2cncnc2)cc1F`, the “% Inhibition” value is 1% and the Z score is recorded as -0.09.
For `O=C1CC[C@H](N2CCN(c3nccc(Oc4ccccc4)n3)CC2)CCN1` the same measures were -1% and 0.22.
On to `CCn1cc(-c2cccc(C(=O)NC3CCN(C[C@H]4CCCO4)CC3)c2)cn1`, for which the “% Inhibition” value turned out to be 6% and the Z score is -1.04.
With `CN1CCN(CCCNC(=O)c2ccccc2Nc2cccc(C(F)(F)F)c2)CC1`, the “% Inhibition” value amounted to 8% and the Z score is on record as -1.36.
For `COc1ccc2cc3n(c2c1)CC(C)(C(=O)NCCCN1CC(C)CC(C)C1)N(Cc1ccccc1C)C3=O` (centres undefined) the same measures were 0% and -0.05.
Taken in the same sequence, the figures for `COC[C@H](NC(=O)Nc1ccncc1F)c1ccccc1` were -8% and 1.39.
On to `CN1CCN(CC2CCN(Cc3cnc(-c4ccccc4)nc3)CC2)CC1`, for which the “% Inhibition” value was found to be 10% and the Z score is given as -1.49.
Taken in the same sequence, the figures for `Cc1ccccc1-c1c(-c2ccccc2)ncn1CCCN(CCO)CCO` were -7% and 1.16.
As to `CCN(C[C@H]1CCN(c2ccnc(COC)n2)C1)CC(F)(F)F`, the “% Inhibition” value is 12% and the Z score is listed as -1.82.
As for `OCCN1CCC[C@H](NCc2cnn(-c3ccccc3)n2)C1`, the “% Inhibition” value is 5% and the Z score was -0.93.
Take `CCCc1nc(-c2noc(C[C@H](C)c3ccccc3C)n2)co1`: the “% Inhibition” value came to 6% and the Z score is -0.85.
In the case of `O=C(Oc1ccc(Cl)c2cccnc12)[C@H]1CCCN(S(=O)(=O)c2ccc(F)cc2)C1`, the “% Inhibition” value amounted to 8% and the Z score is listed as -1.25.
Turning to `NC(=O)[C@H]1CCCN(CCCNc2cc(C(F)(F)F)nc(N3CCCC3)n2)C1`, the “% Inhibition” value is on record as -5% and the Z score came out at 0.88.
For `NC(=O)c1ncn(C2CCN(c3ccnc4cc(F)ccc34)CC2)c1N` the same measures were 3% and -0.52.
As for `c1nc2c(c(NCCc3cn[nH]c3)n1)CCN(C[C@H]1CCCNC1)CC2`, the “% Inhibition” value is listed as -9% and the Z score is reported as 1.52.
As for `Cc1cc(O)c2cccc(-c3cccc(C(=O)NCCCN4CCCC4)c3)c2n1`, the “% Inhibition” value is given as -1% and the Z score came to 0.22.
Consider `CCc1nccc(-c2c(-c3ccccc3)ncn2C[C@H](O)c2ccccc2)n1`, for which the “% Inhibition” value is recorded as 0% and the Z score is given as 0.04.
Consider `O=C(Nc1ncc(-c2cnccn2)s1)[C@@H]1CCCCN1C1CCCC1`, for which the “% Inhibition” value is -2% and the Z score came out at 0.46.
In the case of `CCN=C(NCc1sccc1C)NC[C@H]1CN(C)CCN1C`, the “% Inhibition” value was determined as 3% and the Z score is reported as -0.65.
Consider `Cc1cccc2[nH]cc(CC(=O)N(C)CCCN(C)C(=O)Cc3c[nH]c4cccc(C)c34)c12`, for which the “% Inhibition” value is recorded as -6% and the Z score is reported as 1.19.
For `Cc1ccccc1[C@H](C(=O)N(Cc1c(C)nn(C)c1C)C1CC1)N(C)C`, the “% Inhibition” value is -5% and the Z score is recorded as 1.11.
Consider `Cc1cc(N2CC3COCCC3(C(=O)O)C2)nc2ccc(F)cc12` (centres undefined), for which the “% Inhibition” value was determined as 76% and the Z score was -13.26.
Take `CN(C)c1nc(NC[C@H]2CC3(CCNCC3)CO2)ncc1F`: the “% Inhibition” value turned out to be 0% and the Z score was -0.08.
Take `COc1ccc(N(C)C(=O)c2cccc3[nH]ccc23)cc1F`: the “% Inhibition” value is listed as 9% and the Z score was -1.55.
`C[C@@H](c1ccc(-c2c(-c3ccccc3)ncn2CCCN(C)C)cc1)N(C)C`: the “% Inhibition” value came out at 47% and the Z score was -10.07.
Consider `Cc1ccc2c(c1)c(Cn1cnc(-c3ccccc3)c1-c1cnn(C)c1)nn2C`, for which the “% Inhibition” value is -14% and the Z score turned out to be 2.4.
`O=c1nc(NC(c2ccccc2)c2ccccc2)cn[nH]1`: the “% Inhibition” value is listed as -4% and the Z score is given as 0.77.
With `Cc1cc(N2CCc3c(cnc(C)c3-c3noc(-c4c[nH]nc4C)n3)C2)ccn1`, the “% Inhibition” value was determined as 6% and the Z score is -1.1.
`CCNc1ccc(-c2nc3ccccc3[nH]2)cn1`: the “% Inhibition” value is recorded as -3% and the Z score worked out at 0.54.
Consider `CCc1c[nH]c2ncnc(NC[C@H](O)c3cc(F)c(F)c(F)c3)c12`, for which the “% Inhibition” value is -3% and the Z score turned out to be 0.58.
For `C=C(C)CNc1ncnc2cc(Cl)ccc12` the same measures were -5% and 1.06.
Regarding `Cc1noc(-c2ccnc(N3CCCN(Cc4cccnc4)CC3)c2)n1`, the “% Inhibition” value worked out at 1% and the Z score is reported as -0.18.
In the case of `CCN1CCN(c2nc3cc(OC)ccc3cc2CNCC2CC3C=CC2C32CC2)CC1` (centres undefined), the “% Inhibition” value is recorded as -3% and the Z score is given as 0.49.
As for `CC[C@H](Nc1cccc(OC)c1)C(=O)NCc1cccc2[nH]ccc12`, the “% Inhibition” value is given as 3% and the Z score is -0.56.
In the case of `Cc1cc(C)nc(Nc2ccc(C(=O)NCCN(C)C)cc2)n1`, the “% Inhibition” value is given as -5% and the Z score is recorded as 0.96.
Taken in the same sequence, the figures for `O=C(O)c1ccc(CN2CCN(S(=O)(=O)C3CC3)CC2)cc1Cl` were -15% and 2.63.
For `Cc1cc(C)c(-c2c(-c3ccccc3)ncn2CC2(O)CCN(C)CC2)c(C)c1` the same measures were -10% and 1.94.
`CN(CC1CCC1)c1c(C#N)cnc2c(F)c(F)c(F)cc12`: the “% Inhibition” value was -5% and the Z score is on record as 0.9.
Regarding `CN1CCN(c2c(NCCc3ccccc3)c(=O)c2=O)CC1`, the “% Inhibition” value is reported as -4% and the Z score was determined as 0.74.
Consider `O=C(c1ccc2ccnc(N3CCN(c4ccccc4)CC3)c2c1)N1CCC(N2CCCCC2)CC1`, for which the “% Inhibition” value is on record as -10% and the Z score is reported as 1.7.
As for `COCCN1CC2CCC1CN(S(=O)(=O)c1cccc(C#N)c1)C2` (centres undefined), the “% Inhibition” value is reported as -4% and the Z score stood at 0.73.
As for `Cc1ccc2nccc(N3CCC(N4CCC(O)CC4)CC3)c2c1`, the “% Inhibition” value turned out to be 22% and the Z score was -4.29.
For `COC(=O)c1cc(Nc2ccc(OCc3ccccc3)cc2)c2cccc(F)c2n1`, the “% Inhibition” value turned out to be 10% and the Z score was -1.48.
Turning to `O=C(NCc1cncc(-c2ccsc2)c1)c1cc2ccccc2[nH]1`, the “% Inhibition” value is recorded as 2% and the Z score was -0.37.
On to `CC(C)OC[C@@H](O)CN1CCN(Cc2nc(C(=O)N3CCN(C4CCCC4)CC3)co2)CC1`, for which the “% Inhibition” value is -5% and the Z score is on record as 0.94.
Take `COCCOc1ccc(-c2ccc(CN3CCNCC3)cc2)cn1`: the “% Inhibition” value worked out at 1% and the Z score was -0.11.
For `Cc1cnccc1N1CCCN(Cc2ccccc2OCCN2CCN(C)CC2)CC1` the same measures were 96% and -19.05.
As to `CO[C@H]1CCCN(c2ccc(NC(=O)c3cc4ccccc4[nH]3)cc2)C1`, the “% Inhibition” value is -4% and the Z score came out at 0.67.
As to `COCCNc1nc(NC(C)CN2CCOCC2)nc(NC(C)CN2CCOCC2)n1` (centres undefined), the “% Inhibition” value is listed as 0% and the Z score worked out at 0.07.
Consider `O=C(NCCN1CCNCC1)c1cccc(-c2cc(Cl)ccc2F)c1`, for which the “% Inhibition” value is reported as -8% and the Z score is given as 1.7.
With `C[C@H]1CN(c2ccc(CNC(=O)N3CCC(c4c[nH]c5ccccc45)CC3)cn2)CCO1`, the “% Inhibition” value is recorded as 3% and the Z score is given as -0.51.
As to `O=C(O)c1ccccc1C1CCN(C(=O)[C@]2(C(=O)O)CCCO2)CC1`, the “% Inhibition” value is on record as -3% and the Z score was found to be 0.48.
As for `CCCCc1ccnc(NS(=O)(=O)Cc2ccc(C#N)cc2)n1`, the “% Inhibition” value is -6% and the Z score was 0.96.
As to `CC(C)(C)OC(=O)N1CCC(CNC[C@H]2CCN(CC(F)(F)F)C2)CC1`, the “% Inhibition” value was -8% and the Z score turned out to be 1.61.
Consider `CCOc1ccc(Nc2cc(-c3ccccc3)c(-c3ccccc3)nn2)cc1`, for which the “% Inhibition” value is listed as -1% and the Z score was determined as 0.23.
Take `CN(CCN1CCCCCC1)C(=O)c1cccc(-c2ccncc2F)c1`: the “% Inhibition” value is -3% and the Z score turned out to be 0.73.
On to `CN(C)Cc1ccc(N2CCN(C3CCC(C(=O)OC(C)(C)C)CC3)CC2)nc1` (centres undefined), for which the “% Inhibition” value is reported as -5% and the Z score was 0.86.
Taken in the same sequence, the figures for `CN1CCC(Cc2noc(-c3ccc(CN4CCN(C)CC4)o3)n2)CC1` were -9% and 1.81.
Take `N#Cc1ccc2[nH]c(-c3ccccc3OCCN3CCCCC3)nc2c1`: the “% Inhibition” value was -6% and the Z score was found to be 0.98.
Consider `FC(F)CN1CCC(Nc2cccc(CN3CCOCC3)c2)CC1`, for which the “% Inhibition” value is given as -8% and the Z score amounted to 1.4.
For `CCc1cc(=O)[nH]c(-c2ccc(NC3CCN(c4nccs4)CC3)nc2)n1` the same measures were -6% and 1.34.
For `Cc1cccc([C@@H](C)CNC2CCN(CCN3CCOCC3)CC2)c1` the same measures were -4% and 0.67.
Taken in the same sequence, the figures for `CC(C)CN1CCN(c2cc(NC3CC3)nc(N)n2)C[C@@H]1CCO` were 1% and -0.17.
Take `FC1(F)CC12CC1CCC(C2)N1c1ncnc2[nH]ccc12` (centres undefined): the “% Inhibition” value was -2% and the Z score amounted to 0.34.
Taken in the same sequence, the figures for `N#Cc1ccc(C(=O)N(CCC(=O)N2CCNCC2)CCN2CCN(c3ccccc3)CC2)cc1` were -11% and 1.9.
Turning to `c1cncc(-c2nc3c(c(NCC[C@H]4CCCN4)n2)CNC3)c1`, the “% Inhibition” value is reported as -3% and the Z score is 0.58.
In the case of `O=C(Cn1ccn2nc(-c3ccc4c(c3)OCO4)cc2c1=O)Nc1cccc(Cl)c1`, the “% Inhibition” value amounted to 1% and the Z score was -0.22.
Consider `CN1CCN(c2cc(N3CCC[C@H](CN4CCCCC4)C3)nc(N)n2)CC1`, for which the “% Inhibition” value is recorded as -9% and the Z score stood at 1.34.

The values are drawn from ChEMBL document CHEMBL5308541, “MAIP: An Open-Source Tool to Enrich High-Throughput Screening Output and Identify Novel, Druglike Molecules with Antimalarial Activity” (ACS Med Chem Lett, 2023).
